Results published in PubChem BioAssay AID1466 (National Center for Advancing Translational Sciences (NCATS), 2008).
The whole screen tested about 200,000 compounds, of which about 10 (0.005%) were called active. Inconclusive results, whose numbers are uncertain, are shown with a selection of clear calls. Calls follow the shape of the dose curve; as a rule, active = well fitted inhibition curve with a large enough effect; inconclusive = small, poorly fitted or top-dose-only effect, or effect the other way, or another doubt; inactive = no such curve, though single readings can be large or run the other way. Potencies of inconclusive entries are left out as doubtful fits.
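For activity change, negative = inhibition in this document: plate controls were uninhibited enzyme wells for no effect and no-enzyme background for full effect.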
Potency is read from the fitted curve at half-maximal effect; tags tell the direction and shape of the fitted curve.

Each compound was assayed against Lysosomal alpha-glucosidase (Homo sapiens) (UniProt P10253) (assay: qHTS Assay for Inhibitors of Human alpha-Glucosidase as a Potential Chaperone Treatment of Pompe Disease). Details: purified human GAA, 4-MU-alpha-glucoside fluorescence; activity change, negative = inhibition: at 76.9 µM (top of the series) unless noted.
Summary of the method: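 Endpoint fluorogenic read: 20 min room-temperature reaction of 4 nM human alpha-glucosidase with 400 uM 4-methylumbelliferyl-alpha-D-pyranoside, pH 5.0, quenched with 1M NaOH/1M glycine pH 10. AC50 from Hill modeling.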
In the case of `Cc1cccc(-n2c3nc(=O)[nH]c(=O)c-3cc3c(C)nn(-c4ccccc4)c32)c1C`, the Potency is reported as inconclusive [activator, partial curve]. For `CCC1C(=O)NCCN1C(=O)c1ccccc1OC1CCN(S(C)(=O)=O)CC1` (stereo not given), the activity change, negative = inhibition was inconclusive: 15.1% [activator]. In the case of `CC1CCC(NC(=O)C2CCN(S(=O)(=O)c3ccc4nc5c(c(C(=O)O)c4c3)CC(C)CC5)CC2)CC1` (stereo not given), the Potency is reported as inconclusive [inhibitor, partial curve]. In the case of `COc1ccccc1N1C(=O)C(Cl)=C(Nc2ccccc2O)C1=O`, the Potency is reported as inconclusive [inhibitor, partial curve]. With `COc1cc(OC)cc(C(=O)NC2CCSC2=O)c1` (stereo not given) the Potency was inconclusive [inhibitor, partial curve, poor fit]. `CC(C)c1ccc(NC(=S)NN(c2ccccc2)c2ccccc2)cc1` was tested, and the activity change, negative = inhibition was inconclusive: -15.5% [inhibitor]. In the case of `CCOC(=O)c1sc(NC(=O)c2cccc(S(=O)(=O)N3CCN(C)CC3)c2)cc1C`, the Potency is reported as inconclusive [inhibitor, single point]. For `Cc1nn(C)cc1/C=C1\CCC/C(=C\c2cn(C)nc2C)C1=O`, the Potency was inconclusive [inhibitor, single point]. In the case of `CCCCCCCCOc1ccc(C2OC34CCCCC3C(C#N)(C#N)C2(C#N)C(=N)O4)cc1` (stereo not given), the Potency is reported as inconclusive [activator, partial curve]. With `CSc1cccc(CN2CCC(CO)(Cc3cccc(C(F)(F)F)c3)CC2)c1` the Potency was inconclusive [inhibitor, partial curve]. `CS(=O)(=O)N1CCC(Oc2ccccc2C(=O)N2CCCCC2CO)CC1` (stereo not given) was tested, and the activity change, negative = inhibition was inconclusive: 14.7% [activator]. For `CCOC(=O)C1CCCN(C(=O)/C=C/c2ccc(OC)cc2)C1` (stereo not given), the Potency was inconclusive [inhibitor, single point]. In the case of `CCOC(=O)c1nnn(-c2nonc2N)c1COc1ccccc1`, the Potency is reported as inconclusive [inhibitor, single point]. `O=C(c1cc(COc2ccc(F)cc2Cl)on1)N1CCC(c2ccncc2)CC1` was tested, and the Potency was inconclusive [inhibitor, single point]. In the case of `Cc1cc(C)cc(N(C(=O)c2csnn2)C(C(=O)NC(C)(C)C)c2cccs2)c1` (stereo not given), the activity change, negative = inhibition is reported as inconclusive: 5.89% [activator]. In the case of `CNc1ccc(Oc2nc([N+](=O)[O-])nn2C)cc1`, the Potency is reported as inconclusive [inhibitor, single point]. With `O=S(=O)(c1ccccc1)N1CCC(N2CCN(c3ccccc3)CC2)CC1` the Potency was inconclusive [inhibitor, single point]. In the case of `O=C(OCn1ncc(Cl)c(Cl)c1=O)c1ccccc1Cl`, the Potency is reported as inconclusive [inhibitor, single point]. With `CC1=CCC(C(=O)O)(C(=O)N/N=C/c2cccs2)C(c2ccc(Cl)cc2)C1` (stereo not given) the Potency was inconclusive [inhibitor, single point]. For `CCOC(=O)N1CCC(NC(=O)C2CCCN(S(=O)(=O)c3ccc4c(c3)oc(=O)n4C)C2)CC1` (stereo not given), the activity change, negative = inhibition was inconclusive: 18.9% [activator]. In the case of `N/C(Cc1ccc([N+](=O)[O-])cc1)=N\OC(=O)c1cccc(Br)c1`, the Potency is reported as inconclusive [inhibitor, single point]. For `COc1ccc(OC)c(S(=O)(=O)N(C)CC(=O)N2CCN(c3ccccc3)CC2)c1`, the Potency was inconclusive [inhibitor, single point]. With `CN(C)S(=O)(=O)c1ccc(N2CCN(S(=O)(=O)c3ccc(F)cc3)CC2)c(Cl)c1` the Potency was inconclusive [inhibitor, partial curve, poor fit]. With `Cc1cc(C2C(C#N)=C(N)OC3=C2C(=O)CC(C)(C)C3)c(C)s1` (stereo not given) the activity change, negative = inhibition was inconclusive: 18.1% [activator]. For `CCOc1ccc(NC(=O)C(=O)NCC2CCCN2CC)cc1` (stereo not given), the activity change, negative = inhibition was inconclusive: 25.5% [activator]. In the case of `O=C(Nc1ccc(Cl)cc1)C(c1ccccc1)N(CCO)CCO` (stereo not given), the Potency is reported as inconclusive [inhibitor, partial curve]. For `COCCNc1ccc(S(=O)(=O)N2CCCC2)cn1`, the activity change, negative = inhibition was inconclusive: -15.5% [inhibitor]. In the case of `Cc1ccc(C)n1-n1c(C)nc2scc(-c3cccs3)c2c1=O`, the Potency is reported as inconclusive [inhibitor, partial curve, poor fit]. For `c1ccc(-c2n[nH]c(-c3ccccc3)c2-c2nc3ccccc3[nH]2)cc1`, the Potency was inconclusive [inhibitor, single point]. `Cc1ccc(S(=O)(=O)N(CC(=O)N2CCCCCC2)c2ccccc2)cc1` was tested, and the Potency was inconclusive [inhibitor, single point]. With `COc1ccc(-c2nc(N=Nc3ccc(O)cc3)n[nH]2)cc1` the Potency was inconclusive [inhibitor, partial curve, poor fit]. `CC1(C)Cc2cccc(OCC(=O)N3CCN(S(=O)(=O)c4ccccc4)CC3)c2O1` was tested, and the Potency was inconclusive [inhibitor, partial curve]. With `COc1cccc(NC(=O)CN2C(=O)C3(OCCCO3)c3ccccc32)c1` the “activity change, negative = inhibition” value was inactive: 1.19%. `Nc1cnc(Nc2ccc(Br)cc2)nc1N` was tested, and the “activity change, negative = inhibition” value was inactive: -2.38%. For `CCOC(=O)C1=C(C)NC2=C(C(=O)CC(C)(C)C2)C1c1cccc(C)n1` (stereo not given), the Potency was inconclusive [activator, partial curve]. With `CN(C)CCCNS(=O)(=O)c1ccc(N2CCC(c3ccc(Cl)cc3)=N2)cc1` the Potency was inconclusive [activator, partial curve]. For `COc1ccccc1OCc1nnc(SCC(=O)c2cc(Cl)ccc2OC)o1`, the Potency was inconclusive [inhibitor, single point]. For `Cc1ccc(Nc2nc(N)nc(CN3CCN(C)CC3)n2)cc1`, the Potency was inconclusive [activator, single point]. With `Cc1cnc(C(=O)Nc2cc(S(=O)(=O)N3CCOCC3)ccc2N2CCN(C)CC2)cn1` the Potency was inconclusive [inhibitor, partial curve]. For `CCOc1ccc(-c2cc(N3C(=O)Nc4ccccc4N3O)on2)cc1`, the Potency was inconclusive [inhibitor, single point]. With `O=C(NN=C1C2CC3CC(C2)CC1C3)c1cc(Cl)ccc1O` the “activity change, negative = inhibition” value was inactive: -3.33%. For `CN1C(=O)SC(Nc2ccc(F)cc2)C1=O` (stereo not given), the Potency was inconclusive [inhibitor, single point]. In the case of `CSc1cccc(NC(=O)C(C)NS(=O)(=O)c2ccc(F)cc2)c1` (stereo not given), the Potency is reported as inconclusive [inhibitor, single point]. `O=C(OC1CCOC1=O)c1cc(-c2cccs2)nc2ccccc12` (stereo not given) was tested, and the Potency was inconclusive [activator, partial curve]. `Cc1c(/C=N/NC(=O)CNc2ccccc2)c2ccccn2c1C(=O)c1ccccc1` was tested, and the Potency was inconclusive [inhibitor, single point]. In the case of `Cc1ccc2c(c1)nnn2C1CCN(CC(=O)NCc2ccccc2F)CC1`, the activity change, negative = inhibition is reported as inconclusive: 12.6% [activator]. In the case of `O=C1CC(NC(=O)C(F)(F)F)=NN1c1ccccc1`, the “activity change, negative = inhibition” value is reported as inactive: 3.52%. `Cc1ccc(Cn2ccc(-c3cnc(-c4ccccc4)s3)n2)cc1` was tested, and the activity change, negative = inhibition was inconclusive: 15.4% [activator]. `CC(C)N1C(=O)CC(Nc2cccc3cccc(N)c23)C1=O` (stereo not given) was tested, and the Potency was inconclusive [inhibitor, single point]. In the case of `COc1ccc(C2=CSC(/N=C/c3ccc(F)cc3)=NN2)cc1`, the Potency is reported as inconclusive [inhibitor, partial curve]. In the case of `Cc1cc(NC(=O)CCC(=O)N(c2ccccc2)C2(C(=O)NC3CCCCC3)CCCC2)no1`, the Potency is reported as inconclusive [inhibitor, partial curve]. With `COc1ccc(Cl)cc1-c1nc(SCC(=O)NC(C)(C)C)n[nH]1` the Potency was inconclusive [inhibitor, full curve, poor fit]. For `COc1ccc(Cc2[nH]n3c(=O)cc(C(C)C)nc3c2-c2ccccc2)cc1`, the activity change, negative = inhibition was inconclusive: 5% [activator]. For `COc1ccc(N/C(C)=C/C(=O)c2ccccc2)cc1`, the “activity change, negative = inhibition” value was inactive: -11.3%. With `Cc1noc(C)c1CCC(=O)N1CCCC(CCC(=O)NCc2ccccc2F)C1` (stereo not given) the activity change, negative = inhibition was inconclusive: 9.21% [activator]. In the case of `CCCCCC(=O)NC(=S)Nc1ccc(Br)cc1C`, the “activity change, negative = inhibition” value is reported as inactive: -4.13%. `O=C(COc1ccc(Br)cc1)N/N=C1\SCC(=O)N1c1ccc(F)cc1` was tested, and the Potency was inconclusive [inhibitor, full curve, poor fit]. With `C/C(=N\NC(=O)c1ccc(C)cc1C)c1ccc2c(c1)Nc1ccccc1S2` the “activity change, negative = inhibition” value was inactive: 2.43%. In the case of `CCn1ccnc1CN1CCN(CC(C)C)C(CCO)C1` (stereo not given), the Potency is reported as inconclusive [inhibitor, single point]. For `O=C(C1CCN(Cc2ccc(F)cc2)CC1)N(CCO)Cc1ccccc1`, the Potency was inconclusive [inhibitor, single point]. For `O=C(NCC1CCCO1)C1c2ccccc2Oc2ccccc21` (stereo not given), the activity change, negative = inhibition was inconclusive: 12.9% [activator]. For `Cc1ccccc1-c1nc(CS(=O)(=O)CC(=O)Nc2cc(F)ccc2F)c(C)o1`, the Potency was inconclusive [inhibitor, partial curve]. In the case of `COCCn1c(SCc2ccc(C(=O)OC)o2)nc2ccccc2c1=O`, the Potency is reported as inconclusive [inhibitor, partial curve, poor fit]. With `COc1ccc(-c2cc3ncc(C(C)=O)c(C)n3n2)cc1` the activity change, negative = inhibition was inconclusive: 15.7% [activator]. With `CCOC(=O)N1CCN(C(=O)C2CCN(S(=O)(=O)c3cc(Cl)ccc3Cl)CC2)CC1` the Potency was inconclusive [inhibitor, partial curve].
